From patent US20030022345A1 (Human Genome Sciences, published 2003)

Molecular target: T1, HA-La autoantigen (UniProt P05455 1-408)
T1 construct: not shown: HA tag
T1 sequence (looked up): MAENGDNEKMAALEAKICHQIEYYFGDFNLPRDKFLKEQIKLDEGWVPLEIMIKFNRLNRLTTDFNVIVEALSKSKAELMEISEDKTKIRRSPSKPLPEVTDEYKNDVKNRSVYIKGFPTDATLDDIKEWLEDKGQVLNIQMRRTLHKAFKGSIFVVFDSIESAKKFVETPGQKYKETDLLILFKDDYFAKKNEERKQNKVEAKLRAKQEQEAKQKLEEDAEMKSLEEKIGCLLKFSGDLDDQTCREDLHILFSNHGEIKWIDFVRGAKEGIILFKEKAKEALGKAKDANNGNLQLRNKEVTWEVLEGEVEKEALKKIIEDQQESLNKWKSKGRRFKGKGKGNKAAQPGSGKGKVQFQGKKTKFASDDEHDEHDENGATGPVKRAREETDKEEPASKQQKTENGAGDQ
Assay: anti-HA co-immunoprecipitation from HeLa extracts, Western blot
Experimental: After transfection, HeLa and COS-1 cells were cultured for 16 hours and 48 hours, respectively, and then labeled with [³⁵S] methionine(100 μCi/ml) for 1 hour in 3 cm dishes. Cells were lysed in 0.5 ml buffer A (150 mM NaCl, 1% NP-40, 0.1 % deoxycholate, 1 mM phenylmethylsulfonyl fluoride (PMSF), 1mM dithiothreitol (DTT), 50 mM Tris-HCl, pH 7.4). After centrifugation, the supernatant was mixed with 2 μg of anti- HA antibody (12CA5) for 6 hours in the cold room at 4° C. Protein G sepharose (30 ml of 50% slurry) was added and the mixture was incubated for 2 hours. After washing with buffer A (1 ml, three times), immunoprecipitates were collected by centrifugation and proteins were eluted with Laemmli buffer for SDS-10% polyacrylamide gel electrophoresis (SDS-PAGE). For co-immunoprecipitation experiments, transfected HeLa cells (6 cm dish) were lysed in 1 ml buffer B (100 mM KCl, 0.5 mM EDTA, 20 mM HEPES-KOH pH 7.6, 0.4% NP-40, 20 % glycerol, 1 mM DTT, 1 mM PMSF, 5 μg/ml pepstatin, 5 μg/ml leupeptin). After centrifugation, an aliquot (0.5 ml) was mixed with anti-HA antibody (2 μg).
The N-terminal third of eIF4G, to which eIF4E binds (Lamphear, B., supra; Mader, S., et al., supra), bears no similarity to p97. Therefore, no canonical eIF4E-binding site (Mader, S., et al., supra) is found in p97. […] Thus, it is predicted that p97 would bind to eIF4A and eIF3, but not to eIF4E. […]

- binding result: no binding
B1: eIF4A (endogenous in HeLa cells) (enzyme)
chain: not shown
